This is an account of results in the antibiotic and cytotoxicity screens of Wong et al. (2023).

In assay [1] the test system is HSkMC (human skeletal muscle cells). Description: cytotoxicity call (relative viability < 0.9). The conditions noted are these: 10 µM.
Assay [2] concerns HepG2. Description: cytotoxicity call (relative viability < 0.9). The conditions noted are these: 10 µM.
Assay [3] concerns S. aureus RN4220. Description: growth inhibition call (relative growth <= 0.2). The settings on record: 50 µM.

The list shows a part of the results.

For the compound `Nc1nnnn1/N=C\c1ccc(O)cc1`, the cytotoxicity call in assay [1] and in assay [2] was “inactive” throughout. Also, the growth inhibition call in assay [3] is “inactive”.
Regarding `CC12CCC3C(=CCc4cc(O)ccc43)C1CCC2=O` (configuration not stated), the cytotoxicity call in assay [1] and in assay [2] was “inactive” throughout. In assay [3], the growth inhibition call was “inactive”.
Regarding `Cc1noc(C)c1-c1ccc(N)cc1`, the cytotoxicity call in assay [1] and in assay [2] was “inactive” throughout. The growth inhibition call in assay [3] was “inactive”.
Turning to `Cc1nc(N(C)C)ncc1C(=O)O`, the cytotoxicity call in assay [1] and in assay [2] was “inactive” throughout. Further, the growth inhibition call in assay [3] was “inactive”.
On to `C[C@@H]1CN([C@@H](C)CO)S(=O)(=O)c2ccc(-c3cccc(C#N)c3)cc2O[C@@H]1CN(C)C(=O)c1cccnc1`, for which the cytotoxicity call in assay [1] and in assay [2] was “inactive” in each case. Besides, in assay [3], the growth inhibition call is “inactive”.
For `C[C@@H]1CN([C@H](C)CO)C(=O)c2cc(NC(=O)Nc3ccc(F)cc3)ccc2O[C@H]1CN(C)Cc1ccc(C(F)(F)F)cc1`, the cytotoxicity call in assay [1] and in assay [2] was “active” throughout. In assay [3], the growth inhibition call was “inactive”.
In the case of `CC(C)(C)S(=O)N1Cc2cc(C(=O)N[C@@H]3CCN(Cc4ccccc4)C3)nc(-c3cccc(C#CCC4CCCC4)c3)c2[C@@H]1CCO` (some centres not stated), the cytotoxicity call in assay [1] and in assay [2] was “inactive” throughout. Moreover, the growth inhibition call in assay [3] is “inactive”.
Regarding `C[C@@H]1CCCCO[C@@H](CN(C)Cc2ccccc2)[C@H](C)CN([C@@H](C)CO)C(=O)c2cc(NS(=O)(=O)c3ccc(F)cc3)ccc2O1`, the cytotoxicity call in assay [1] and in assay [2] was “inactive” each time. Also, the growth inhibition call in assay [3] was “inactive”.
On to `COc1ccccc1C#Cc1cnc2c(c1)C(=O)N([C@@H](C)CO)C[C@@H](C)[C@@H](CN(C)C(=O)CC1CC1)O2`, for which the cytotoxicity call in assay [1] and in assay [2] was “inactive” each time. Besides, the growth inhibition call in assay [3] was “inactive”.
As for `C[C@@H]1CCCCO[C@H](CN(C)C(=O)Nc2ccc3c(c2)OCO3)[C@H](C)CN([C@@H](C)CO)C(=O)c2cc(NC(=O)NC3CCCCC3)ccc2O1`, the cytotoxicity call in assay [1] and in assay [2] was “inactive” throughout. Further, the growth inhibition call in assay [3] was “inactive”.
Turning to `COC(=O)/C=C/C(=O)OC`, the cytotoxicity call in assay [1] and in assay [2] was “inactive” each time. Besides, the growth inhibition call in assay [3] is “inactive”.
As for `COc1ccc2c3c(n(c2c1)C)[C@@H](CO)N(Cc1ccccc1)C[C@]13CCN(CC1)C(=O)c1ccccc1F`, the cytotoxicity call in assay [1] and in assay [2] was “inactive” throughout. Besides, in assay [3], the growth inhibition call is “inactive”.
Regarding `CCS(=O)(=O)N1CC[C@]2(CC1)CN([C@H](CO)c1c2c2ccc(cc2n1C)OC)S(=O)(=O)c1ccccc1`, the cytotoxicity call in assay [1] and in assay [2] was “inactive” throughout. Further, the growth inhibition call in assay [3] was “inactive”.
Regarding `C[C@@H]1CN([C@@H](C)CO)C(=O)c2cc(NS(=O)(=O)c3cn(C)cn3)ccc2O[C@H]1CN(C)C(=O)NC1CCCCC1`, the cytotoxicity call in assay [1] and in assay [2] was “inactive” throughout. For the same compound, the growth inhibition call in assay [3] is “inactive”.
Regarding `Cc1ccccc1NC(=O)CC(C)C`, the cytotoxicity call in assay [1] and in assay [2] was “inactive” throughout. Further, in assay [3], the growth inhibition call is “inactive”.
As for `Cc1noc(C)c1NC(=O)Nc1ccc2c(c1)C(=O)N([C@H](C)CO)C[C@H](C)[C@H](CN(C)C(=O)Nc1cccc3ccccc13)OCCCC[C@H](C)O2`, in assay [1], the cytotoxicity call is “active”. In addition, in assay [2], the cytotoxicity call was “inactive”. In addition, in assay [3], the growth inhibition call is “inactive”.
As to `CC1(C)CC(=O)C(=CNC(CO)(CO)CO)C(=O)C1`, the cytotoxicity call in assay [1] and in assay [2] was “inactive” in each case. In assay [3], the growth inhibition call was “inactive”.
As for `COc1ccc(NC(=O)Nc2ccc3c(c2)C(=O)N([C@H](C)CO)C[C@@H](C)[C@H](CN(C)S(=O)(=O)c2c(C)noc2C)OCCCC[C@@H](C)O3)cc1`, the cytotoxicity call in assay [1] and in assay [2] was “inactive” throughout. Also, in assay [3], the growth inhibition call is “inactive”.
Take `C[C@@H]1CN([C@H](C)CO)S(=O)(=O)c2ccc(-c3cncnc3)cc2O[C@H]1CN(C)C(=O)Cc1ccccc1`: the cytotoxicity call in assay [1] and in assay [2] was “inactive” in each case. The growth inhibition call in assay [3] was “inactive”.
Consider `C[C@@H]1CCCCO[C@@H](CN(C)C(=O)C2CCCCC2)[C@H](C)CN([C@@H](C)CO)C(=O)c2cc(NC(=O)Nc3ccc(C(F)(F)F)cc3)ccc2O1`, for which the cytotoxicity call in assay [1] is “inactive”. Also, the cytotoxicity call in assay [2] was “active”. Also, in assay [3], the growth inhibition call was “inactive”.
Take `Cc1noc(C)c1NC(=O)N(C)C[C@@H]1Oc2ccc(NC(=O)Cn3cnnn3)cc2C(=O)N([C@H](C)CO)C[C@@H]1C`: the cytotoxicity call in assay [1] and in assay [2] was “inactive” each time. In assay [3], the growth inhibition call was “inactive”.
Regarding `CCCCCC/C=C/C=C\CCCCCCCC(=O)O`, the cytotoxicity call in assay [1] and in assay [2] was “inactive” in each case. For the same compound, the growth inhibition call in assay [3] is “inactive”.
In the case of `CO[C@H]1CN(C)C(=O)c2cc(NC(=O)C3CC3)ccc2OC[C@@H](C)N(C(=O)C2CCOCC2)C[C@H]1C`, the cytotoxicity call in assay [1] and in assay [2] was “inactive” in each case. The growth inhibition call in assay [3] was “inactive”.
In the case of `CC(C)NC(=O)Nc1ccc2c(c1)C(=O)N([C@@H](C)CO)C[C@H](C)[C@H](CN(C)C(=O)Nc1ccccc1)OCCCC[C@@H](C)O2`, the cytotoxicity call in assay [1] and in assay [2] was “inactive” each time. Further, in assay [3], the growth inhibition call is “inactive”.
For `CNC(=O)C[C@@H]1CC[C@H]2[C@H](COc3ccc(NC(=O)c4ccc(C(F)(F)F)cc4)cc3C(=O)N2C)O1`, the cytotoxicity call in assay [1] and in assay [2] was “inactive” in each case. Also, the growth inhibition call in assay [3] was “inactive”.
As to `O=C(O)/C=C/c1ccc(O[C@@H]2O[C@H](CO)[C@@H](O)[C@H](O)[C@H]2O)cc1`, the cytotoxicity call in assay [1] and in assay [2] was “inactive” each time. In assay [3], the growth inhibition call was “inactive”.
As to `C[C@H](CO)N1C[C@H](C)[C@H](CN(C)C(=O)Nc2ccc(F)cc2)OCCCC[C@H](C)Oc2ccc(NS(=O)(=O)c3ccccc3)cc2C1=O`, the cytotoxicity call in assay [1] and in assay [2] was “inactive” throughout. In assay [3], the growth inhibition call was “inactive”.
Consider `NCC[C@H]1CC[C@H](NC(=O)C2CC2)[C@H](CO)O1`, for which the cytotoxicity call in assay [1] and in assay [2] was “inactive” in each case. Further, the growth inhibition call in assay [3] was “inactive”.
For `CCC(C)C1OC2(CCC1C)CC1CC(CC=C(C)C(OC3CC(OC)C(OC4CC(OC)C(O)C(C)O4)C(C)O3)C(C)C=CC=C3COC4C(O)C(C)=CC(C(=O)O1)C34O)O2` (configuration not stated), in assay [1], the cytotoxicity call was “inactive”. The cytotoxicity call in assay [2] is “active”. In assay [3], the growth inhibition call is “inactive”.
